Source: article PMC4336329 (PLoS ONE, 2015)
Out of some 310,000 compounds screened, about 14,000 (4.5%) showed an effect of 50% or more. Effects have a minus sign here. Some of the results follow.

Each molecule was assayed against human ether-à-go-go-related gene (hERG) potassium channel (human, UniProt Q12809) (assay: primary screen, population patch clamp on CHO cells stably expressing hERG).
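Also: peak tail current of the secondary pulse compared with the same well before compound.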

Sequence of human ether-à-go-go-related gene (hERG) potassium channel (Q12809 whole entry, looked up): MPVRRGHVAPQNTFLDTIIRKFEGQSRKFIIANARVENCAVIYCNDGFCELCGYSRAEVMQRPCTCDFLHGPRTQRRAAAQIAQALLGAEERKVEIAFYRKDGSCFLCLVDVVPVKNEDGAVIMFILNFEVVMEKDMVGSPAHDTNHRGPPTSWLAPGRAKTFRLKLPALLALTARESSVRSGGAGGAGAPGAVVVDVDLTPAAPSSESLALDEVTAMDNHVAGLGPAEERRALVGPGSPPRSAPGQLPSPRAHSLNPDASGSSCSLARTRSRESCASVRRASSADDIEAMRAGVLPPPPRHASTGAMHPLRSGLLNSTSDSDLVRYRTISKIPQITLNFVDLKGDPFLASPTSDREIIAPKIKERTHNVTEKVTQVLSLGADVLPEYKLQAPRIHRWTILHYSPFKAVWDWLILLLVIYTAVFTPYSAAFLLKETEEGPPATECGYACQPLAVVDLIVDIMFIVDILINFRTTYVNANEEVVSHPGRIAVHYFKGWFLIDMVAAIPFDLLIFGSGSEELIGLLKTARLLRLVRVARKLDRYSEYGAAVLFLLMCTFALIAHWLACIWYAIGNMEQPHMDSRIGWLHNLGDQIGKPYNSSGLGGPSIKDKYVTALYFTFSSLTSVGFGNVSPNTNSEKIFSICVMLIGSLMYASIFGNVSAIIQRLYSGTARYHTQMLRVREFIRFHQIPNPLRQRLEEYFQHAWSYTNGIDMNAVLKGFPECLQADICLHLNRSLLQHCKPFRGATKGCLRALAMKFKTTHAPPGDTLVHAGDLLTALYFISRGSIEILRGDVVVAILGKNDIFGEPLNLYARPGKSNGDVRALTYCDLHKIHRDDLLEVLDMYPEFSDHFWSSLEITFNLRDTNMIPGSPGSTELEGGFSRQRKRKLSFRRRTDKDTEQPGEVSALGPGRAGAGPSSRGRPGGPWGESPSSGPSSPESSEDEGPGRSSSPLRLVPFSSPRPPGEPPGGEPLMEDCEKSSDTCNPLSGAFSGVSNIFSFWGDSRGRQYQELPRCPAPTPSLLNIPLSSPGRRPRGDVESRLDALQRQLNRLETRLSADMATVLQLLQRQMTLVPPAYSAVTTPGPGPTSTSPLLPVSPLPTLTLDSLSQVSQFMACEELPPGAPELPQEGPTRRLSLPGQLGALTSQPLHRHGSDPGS

Structure (SMILES) | hERG current change (%, negative = inhibition) at 10uM
CC(C)(C)c1ccc(/C=C/C(=O)NC2CCS(=O)(=O)C2)cc1 (centres unmarked) | -17.8%
CC(C)c1cc(-c2cc(C(=O)Nc3ccccc3)on2)nc(NCC2CC2)n1 | 10.3%
O=C(Oc1c(-c2ccccc2)c(=O)n2c3c(cccc13)CC2)c1ccccc1 | -9.09%
O=C(CN1CCN(Cc2ccc(F)cc2)CC1)Nc1nc2ccccc2s1 | -69.3%
CNS(=O)(=O)/C=C/c1ccccc1 | 18.2%
COc1ccccc1N1CCN(C(=O)/C=C/c2ccccc2)CC1 | -33.8%
CC(C)(C)OC(=O)N1CCC(CNC(=O)Nc2ccccc2)CC1 | 20.7%
Cc1ccc(OCC(=O)N2CCN(c3nnc(-c4ccc(C)cc4)c4ccccc34)CC2)cc1 | -49.3%
O=S(=O)(c1ccc2[nH]ccc2c1)N1CCCCCC1 | -1.1%
CC1CCN(C(=O)CSc2ccc(-c3cccnc3)nn2)CC1 | 7.11%
COc1ccc(/C=C2\C(=N)N3N=C(CC(=O)N4CCCCC4)SC3=NC2=O)cc1 | 7.31%
CN(Cc1cnn(Cc2ccccc2)c1)C(=O)c1cccc(S(=O)(=O)N2CCOCC2)c1 | -10.3%
N#Cc1ccccc1NC(=O)COC(=O)c1ccc2c(c1)OCO2 | 12.8%
COc1ccc(-c2nnc(NC(=O)c3ccc(S(=O)(=O)N(C)CC4CCCO4)cc3)o2)c(OC)c1 (centres unmarked) | 10.3%
CC(=O)N1CCc2cc(S(=O)(=O)N3CCc4ccccc43)ccc21 | -37.6%
O=C(Nc1ccc(O)c2c(=O)cc(-c3ccccc3Cl)oc12)c1cccs1 | 7.99%
CCc1ccccc1NC(=O)CN1CCN(C(=O)CCC(=O)N2CCC(c3ccccc3)=N2)CC1 | -58%
COc1cc2nc(NC(=O)c3ccccc3)[nH]c(=O)c2cc1OC | 15.5%
Cn1nc(C(F)(F)F)c(/C=N/OCc2c(Cl)cccc2Cl)c1Cl | 6.03%
Cc1ccc2nc(SCC(=O)Nc3ccc4c(c3)OCCO4)[nH]c2c1 | 4.73%
CCCCC/C=C\C/C=C\C/C=C\CCCCC(=O)O | 10.8%
C=CCOc1c2ccc(C(=O)NCc3ccc(C)cc3)cc2nn1C | -2.67%

Structure (SMILES) | hERG current change (%, negative = inhibition) at 10uM
Cc1ccc(/C=C/C(=O)N2CC(C)CC(C)C2)o1 (centres unmarked) | -14.8%
CCC(=O)Nc1ccc(S(=O)(=O)NCC2CCCO2)cc1 (centres unmarked) | 9.87%
CCN(CC)S(=O)(=O)c1ccc(N2CCOCC2)c(NC(=O)C2CCCO2)c1 (centres unmarked) | -0.0657%
C=CCC(C(=O)NC(C)c1ccccc1)C(=O)NC(C)c1ccccc1 (centres unmarked) | -2.71%
O=C(OCc1ccc(Br)cc1)c1cccc(S(=O)(=O)N2CCCC2)c1 | -6.47%
CN(c1ccccc1)S(=O)(=O)c1cccc(NC(=O)c2ccc3ncsc3c2)c1 | 7.29%
Cc1ccccc1NS(=O)(=O)c1ccc(OCC(=O)NCc2ccccn2)cc1 | -44.6%
COc1ccc(N(CC(=O)NC2CCCCCC2)S(=O)(=O)c2ccc(C)cc2)cc1OC | 16%
COc1ccc(S(=O)(=O)CCC(=O)Nc2c(C)n(C)n(-c3ccccc3)c2=O)cc1 | 2.02%
CCCCn1c(O)c(C=NCc2ccc3c(c2)OCO3)c(=O)[nH]c1=O | -16.6%
COCCn1c(CCC(=O)O)nc2c1c(=O)[nH]c(=O)n2CC(C)C | -2.38%
O=C(NNC(=O)c1cc([N+](=O)[O-])ccc1Cl)c1cccnc1 | 13.4%
COc1cc(/C=C2\CCC(C3CCCC3)C2=O)ccc1OC(C)C (centres unmarked) | 5.66%
CCN(CC(=O)NCc1ccc(Cl)cc1)C(=O)CSc1ccccc1 | -65.6%
Cn1c(SCC(=O)NC2CCCC2)nnc1C(F)(F)F | -6.87%
Cc1ccccc1CSc1nccn1-c1ccccc1 | -8.94%
CC(=O)Nc1c(Br)cc(N2C(=O)CCC2=O)cc1Br | 12%
Cc1ccc(C(=O)NC(=S)NNC(=O)c2ccc([N+](=O)[O-])cc2)cc1 | 4.74%
N#CCOc1coc(CN2CCN(c3cccc(Cl)c3)CC2)cc1=O | -0.696%
O.O=C(OCC1OC2C(Oc3nc(=O)ccn32)C1O)c1ccccc1 (centres unmarked) | -0.213%
COc1cc2c(cc1OC)C1(C)N(CC2)C(C(C)=O)=NN1c1ccc(Cl)cc1 (centres unmarked) | 3.74%
Cc1onc(-c2c(Cl)cccc2Cl)c1C(=O)NC(=S)N1CCOCC1 | 6%

Structure (SMILES) | hERG current change (%, negative = inhibition) at 10uM
CC(C(=O)NCC1CCCO1)n1cccc1C(=O)c1ccccc1 (centres unmarked) | 15.1%
CC(O/N=C\c1ccccc1O)C(=O)Nc1ccccc1C(=O)N1CCOCC1 (centres unmarked) | 22.8%
CC(C)N1C(=O)/C(=C\c2nc3ccccc3c(=O)[nH]2)c2ccccc21 | 23.9%
Cc1sc2nc(SCC(=O)Nc3c(C)n(C)n(-c4ccccc4)c3=O)n(C)c(=O)c2c1C | 9.4%
COC(=O)c1cc(NS(=O)(=O)c2ccc(NC(C)=O)cc2)ccc1Cl | 5.13%
Cc1ccc(S(=O)(=O)N2Cc3ccccc3CC2C(=O)Nc2cc(C)on2)cc1 (centres unmarked) | -17.8%
COC(=O)C1=C(O)/C(=C\c2ccc(CNS(=O)(=O)c3ccc(Cl)cc3)o2)N=C1C | 9.46%
CC1(C)CC(=O)C2=C(C1)N(Cc1ccccc1)C(=O)C2(O)C(F)(F)F (centres unmarked) | -4.64%
CC(NC(=O)Cc1ccccc1)C1COc2ccccc2O1 (centres unmarked) | 7.25%
COc1ccc([C@H]2CC(=O)C=C(c3ccc4c5c(cccc35)CC4)C2)cc1 | 16%
Cc1ccc(-n2nc3c(=O)n(CCCC(=O)NCc4cccc(F)c4)nc(C)c3c2C)cc1 | -21.7%
O=C(O)c1cc(NC(=O)C2CCCO2)cc(C(=O)O)c1 (centres unmarked) | 29.6%
Cc1nc(Sc2ccc(Br)cc2)c(C#N)c(C)c1[N+](=O)[O-] | 20.1%
CSCC[C@H](NC(=O)C1CCC(CNC(=O)[C@@H](N)Cc2ccccc2)CC1)C(=O)O.Cl (some centres unmarked) | -1.56%
CCCn1c(N)c(C(=O)CSc2nnc(-c3ccoc3C)n2C)c(=O)n(C)c1=O | -7.82%
CCc1ccc(OCC(=O)N2CCN(Cc3ccc4c(c3)OCO4)CC2)cc1 | -15.9%
N/C(=N\OC(=O)c1ccc2c(c1)OCO2)c1cccc([N+](=O)[O-])c1 | 8.13%
CCOc1ccc(-c2nnc(SCC(=O)N3CCN(c4ccccc4)CC3)o2)cc1 | 8.26%
CC(C)(C)C1(C)OC(C(N)=O)C(C(N)=O)O1 (centres unmarked) | 15.3%
CC(=O)Nc1ccc(S(=O)(=O)Nc2ccc(C)c([N+](=O)[O-])c2)cc1 | -19.6%
Cc1cc2cc(CNC(=O)Cc3ccc([N+](=O)[O-])cc3)ccc2[nH]1 | -50.7%
Cc1ccc(S(=O)(=O)NCc2ccccc2)cc1C(=O)N(C)Cc1ccc(F)cc1 | 5.11%

Structure (SMILES) | hERG current change (%, negative = inhibition) at 10uM
COc1ccc(NC(=O)C2CCCN2C(=O)Nc2ccccc2)cc1OC (centres unmarked) | 3.54%
N#Cc1nc(N2CCCC2)nc(N2CCCC2)n1 | -8.34%
CCOc1cc2[nH]c(=S)n(CCCN3CCOCC3)c(=O)c2cc1OCC | -18.5%
NS(=O)(=O)c1ccc(CCNC(=O)CN2CCC(Cc3ccccc3)CC2)cc1 | -34.1%
Cc1ccc(/C=C/C(=O)Nc2cccc(S(=O)(=O)N3CCOCC3)c2)o1 | -19.9%
COc1ccc(Cl)cc1C(=O)N(Cc1nc(-c2cccc(C)c2)no1)C(C)C | -14%
O=C(COC(=O)CSc1cc(Cl)ccc1Cl)Nc1ncc(C(F)(F)F)cc1Cl | -0.654%
CCn1c(SCC(=O)N2CCCCC2)nnc1-c1ccc(S(=O)(=O)N2CCN(C)CC2)cc1 | -9%
COc1ccc(NC(=O)CN(C)Cc2cccs2)cc1Cl | -15.7%
CCN(CC(=O)NCc1ccc(Cl)cc1)C(=O)/C=C/c1cccs1 | -49.1%
O=C(CCc1nnc2ccc(NCc3ccccc3)nn12)N1CCC2(CC1)OCCO2 | 14.4%
CCc1ccc(NC(=O)c2cc3c(C)nc4ccccc4c3o2)cc1 | -8.43%
Cc1cccc(N2CCN(C(=O)c3nn(C)c4c3CS(=O)(=O)c3ccccc3-4)CC2)c1C | -33.4%
COc1ncccc1C(=O)NC1CCCc2c1cnn2-c1cc(C)cc(C)c1 (centres unmarked) | -7.08%
COc1c(S(=O)(=O)n2nc(C)cc2C)ccc(Cl)c1Cl | -10.6%
CCOC(=O)c1cc(C)sc1NC(=O)CSC1=NCCS1 | -13.4%
O/N=C1\CC/C(=N\O)c2nn(-c3ccc(Cl)cc3Cl)nc21 | -2.2%
Nc1cc(=O)[nH]c(SCC(=O)Nc2cccc(Cl)c2Cl)n1 | 22.1%
Cc1ccc(-c2nnc(-c3ccc(NC(=O)Cc4cccs4)cc3)o2)cc1 | 0.386%
COc1ccc2oc(C(=O)NC3(C)CCS(=O)(=O)C3)c(C)c2c1 (centres unmarked) | -1%
